The source of these data is patent US11618753B2 (priority 2018, dated 2023).

This test has as its system MLKL phosphorylation, HT29-L23 human colorectal adenocarcinoma cells. In words: cells. Conditions: read-out: pMLKL HCS Cell Assay (IC50, uM).
The IC50 is the concentration at which inhibition is half-maximal. Take `COc1ncc(-c2cc(CN3CCC3)c3c(N)ncnn23)cc1C(=O)N[C@@H]1CN(C(=O)C2CC(F)(F)C2)C[C@@H]1F` [Example 498, 5-{4-amino-5-[(azetidin-1-yl)methyl]pyrrolo[2,1-f][1,2,4]triazin-7-yl}-N-[(3R,4S)-1-(3,3-difluorocyclobutanecarbonyl)-4-fluoropyrrolidin-3-yl]-2-methoxypyridine-3-carboxamide]: the IC50 worked out at 0.0038 µM.
To `COc1ncc(-c2cc(CN3CCC(F)(F)CC3)c3c(N)ncnn23)cc1C(=O)N[C@@H]1CN(C(=O)c2ccccn2)C[C@@H]1F` [Example 1254, 5-{4-amino-5-[(4,4-difluoropiperidin-1-yl)methyl]pyrrolo[2,1-f][1,2,4]triazin-7-yl}-N-[(3R,4S)-4-fluoro-1-(pyridine-2-carbonyl)pyrrolidin-3-yl]-2-methoxypyridine-3-carboxamide] belongs 0.0015 µM; to `Nc1ncnn2c(-c3ccc(Cl)c(C(=O)N[C@@H]4CN(C(=O)c5cc(C(F)(F)F)ccn5)C[C@@H]4F)c3)cc(C(F)(F)F)c12` [Example 943, 5-[4-amino-5-(trifluoromethyl)pyrrolo[2,1-f][1,2,4]triazin-7-yl]-2-chloro-N-[(3R,4S)-4-fluoro-1-[4-(trifluoromethyl)pyridine-2-carbonyl]pyrrolidin-3-yl]benzamide], 0.326 µM.
In the case of `COc1ncc(-c2cc(C(F)(F)F)c3c(N)ncnn23)cc1C(=O)NC1CN(Cc2ccc(C#N)cc2)CC1F` (racemic) [Example 241, 5-[4-amino-5-(trifluoromethyl)pyrrolo[2,1-f][1,2,4]triazin-7-yl]-N-{1-[(4-cyanophenyl)methyl]-4-fluoropyrrolidin-3-yl}-2-methoxypyridine-3-carboxamide] it was 0.033 µM; in that of `CC(C)(O)C(=O)N1C[C@H](F)[C@H](NC(=O)c2cc(-c3cc(C(F)(F)F)c4c(N)ncnn34)c(F)cc2F)C1` [Example 776, 5-[4-amino-5-(trifluoromethyl)pyrrolo[2,1-f][1,2,4]triazin-7-yl]-2,4-difluoro-N-[(3R,4S)-4-fluoro-1-(2-hydroxy-2-methylpropanoyl)pyrrolidin-3-yl]benzamide], 0.143 µM.
To `COc1ncc(-c2cc(CN3CCC(F)(F)CC3)c3c(N)ncnn23)cc1C(=O)N[C@@H]1CN(C(=O)OC2(C3CC3)CC2)C[C@@H]1F` [Example 1521, [1,1′-bi(cyclopropane)]-1-yl (3R,4S)-3-(5-{4-amino-5-[(4,4-difluoropiperidin-1-yl)methyl]pyrrolo[2,1-f][1,2,4]triazin-7-yl}-2-methoxypyridine-3-amido)-4-fluoropyrrolidine-1-carboxylate] belongs 0.0032 µM; to `Cc1ncc(-c2cc(C(F)(F)F)c3c(N)ncnn23)cc1C(=O)N[C@@H]1CN(C(=O)[C@@H](O)C(C)(C)C)C[C@@H]1F` [Example 373, 5-[4-amino-5-(trifluoromethyl)pyrrolo [2,1-f][1,2,4]triazin-7-yl]-N-[(3R,4S)-4-fluoro-1-[(2S)-2-hydroxy-3,3-dimethyl-butanoyl]pyrrolidin-3-yl]-2-methyl-pyridine-3-carboxamide], 0.05 µM.
As for `COc1ncc(-c2cc(C(F)(F)F)c3c(N)ncnn23)cc1C(=O)N[C@H]1CCN(C(=O)C2CCCC2)C1` [Example 264, 5-[4-amino-5-(trifluoromethyl)pyrrolo[2,1-f][1,2,4]triazin-7-yl]-N-[(3S)-1-cyclopentanecarbonylpyrrolidin-3-yl]-2-methoxypyridine-3-carboxamide], the IC50 came to 0.104 µM.
For the molecule `Cc1cc(F)c(-c2cc(C(F)(F)F)c3c(N)ncnn23)cc1C(=O)N[C@@H]1CN(C(=O)c2c(F)cc(F)cc2F)C[C@@H]1F` [Example 823, 5-[4-amino-5-(trifluoromethyl)pyrrolo[2,1-f][1,2,4]triazin-7-yl]-4-fluoro-N-[(3R,4S)-4-fluoro-1-(2,4,6-trifluorobenzoyl)pyrrolidin-3-yl]-2-methylbenzamide], the half-inhibitory concentration (IC50) came to 0.0086 µM.
To `COc1ncc(-c2cc(CN3CCC(F)(F)CC3)c3c(N)ncnn23)cc1C(=O)N[C@@H]1CN(C(=O)OCC(F)(F)C(F)(F)F)C[C@@H]1F` [Example 1522, 2,2,3,3,3-pentafluoropropyl (3R,4S)-3-(5-{4-amino-5-[(4,4-difluoropiperidin-1-yl)methyl]pyrrolo[2,1-f][1,2,4]triazin-7-yl}-2-methoxypyridine-3-amido)-4-fluoropyrrolidine-1-carboxylate] belongs 0.0038 µM; to `COc1ncc(-c2cc(C(F)(F)F)c3c(N)ncnn23)cc1C(=O)NCCC(O)(C(F)(F)F)C(F)(F)F` [Example 1782, 5-(4-amino-5-(trifluoromethyl)pyrrolo[2,1-f][1,2,4]triazin-7-yl)-2-methoxy-N-(4,4,4-trifluoro-3-hydroxy-3-(trifluoromethyl)butyl)nicotinamide], 0.239 µM.
Turning to `Nc1ncnn2c(-c3ccc(Cl)c(C(=O)N[C@@H]4CN(C(=O)c5ccncc5F)C[C@@H]4F)c3)cc(C(F)(F)F)c12` [Example 961, 5-[4-amino-5-(trifluoromethyl)pyrrolo[2,1-f][1,2,4]triazin-7-yl]-2-chloro-N-[(3R,4S)-4-fluoro-1-(3-fluoropyridine-4-carbonyl)pyrrolidin-3-yl]benzamide], the IC50 was found to be 0.025 µM.
To `Cc1ccc(-c2cc(C(F)(F)F)c3c(N)ncnn23)cc1C(=O)Nc1ccn(Cc2ccccc2)n1` [Example 1793, 5-(4-amino-5-(trifluoromethyl)pyrrolo[2,1-f][1,2,4]triazin-7-yl)-N-(1-benzyl-1H-pyrazol-3-yl)-2-methylbenzamide] belongs 0.0029 µM; to `COc1ccc(-c2cc(C(F)(F)F)c3c(N)ncnn23)cc1C(=O)N[C@@H]1CN(C(=O)C(C)C(F)(F)F)C[C@@H]1F` (stereo partly drawn) [Example 1123, 5-[4-amino-5-(trifluoromethyl)pyrrolo[2,1-f][1,2,4]triazin-7-yl]-N-[(3R,4S)-4-fluoro-1-(3,3,3-trifluoro-2-methylpropanoyl)pyrrolidin-3-yl]-2-methoxybenzamide], 0.031 µM; to `Cc1ncc(-c2cc(C(F)(F)F)c3c(N)ncnn23)cc1C(=O)N[C@@H]1CN(C(=O)C2CCC(F)(F)C2)C[C@@H]1C` (stereo partly drawn) [Example 294, 5-[4-amino-5-(trifluoromethyl)pyrrolo[2,1-f][1,2,4]triazin-7-yl]-N-[(3S,4S)-1-(3,3-difluoro-cyclopentanecarbonyl)-4-methylpyrrolidin-3-yl]-2-methylpyridine-3-carboxamide], 0.046 µM.
As to `CC(C)CC(=O)N1C[C@H](F)[C@H](NC(=O)c2cc(-c3cc(C(F)(F)F)c4c(N)ncnn34)ccc2Cl)C1` [Example 939, 5-[4-amino-5-(trifluoromethyl)pyrrolo[2,1-f][1,2,4]triazin-7-yl]-2-chloro-N-[(3R,4S)-4-fluoro-1-(3-methylbutanoyl)pyrrolidin-3-yl]benzamide], the half-maximal inhibitory concentration (IC50) was determined as 0.0034 µM.
In the case of `Cc1cc(F)c(-c2cc(C(F)(F)F)c3c(N)ncnn23)cc1C(=O)N[C@@H]1CN(C(=O)c2ccc(Cl)cc2)C[C@@H]1F` [Example 827, 5-[4-amino-5-(trifluoromethyl)pyrrolo[2,1-f][1,2,4]triazin-7-yl]-N-[(3R,4S)-1-(4-chlorobenzoyl)-4-fluoropyrrolidin-3-yl]-4-fluoro-2-methylbenzamide] it was 0.0099 µM.
